Reference: the supplement of paper PMC4967469

Columns and labels:
Assay in all cases: Viability of human cancer cell lines after 72 h of drug (GDSC screen)
[1] = compound: C/C=C(/C)C(=O)O[C@H]1C(C)=C2[C@H]([C@@H]1OC(=O)CCCCCCC)[C@@](C)(OC(C)=O)C[C@H](OC(=O)CCC)[C@@]1(O)[C@H]2OC(=O)[C@@]1(C)O [Thapsigargin]; conditions: top dose 0.512 µM; top dose inferred
Method: (§1)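 Human cancer cell lines in 384-well plates, medium with 10% serum, drug for 72 h over a 256-fold dose range (nine 2-fold or five 4-fold steps up to the top dose). Adherent lines were fixed and stained with the nucleic acid dye Syto60, suspension lines read with resazurin; signal relative to control wells, capped at 0 and 100%. One two-parameter sigmoid per drug and line, fitted in a mixed model over all curves with the slope shared within a line.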

[2] = compound: C=CC(=O)Nc1cc(-n2c(=O)ccc3cnc4ccc(-c5cn[nH]c5)cc4c32)ccc1C [QL-X-138]; conditions: top dose 10.24 µM; top dose inferred
Method: as §1

[3] = compound: CCn1c(-c2nonc2N)nc2cnc(Oc3cccc(NC(=O)c4ccc(OCCN5CCOCC5)cc4)c3)cc21 [GSK269962A]; conditions: top dose 5 µM; screen: GDSC drug entry 1192; top dose inferred
Method: as §1

[4] = compound: COc1cc(N2CCC(O)CC2)ccc1Nc1cc(Nc2ccccc2S(=O)(=O)C(C)C)c2cc[nH]c2n1 [MPS-1-IN-1]; conditions: top dose 20 µM; top dose inferred
Method: as §1

[5] = compound: COc1cc(O)c2c(c1)/C=C/C[C@H](O)[C@H](O)C(=O)/C=C\C[C@H](C)OC2=O [(5Z)-7-Oxozeaenol]; conditions: top dose 10 µM; top dose inferred
Method: as §1

[6] = compound: COc1cc2ncnc(-n3nc(-c4ccccn4)nc3N)c2cc1OC [CP466722]; conditions: top dose 16 µM; top dose inferred
Method: as §1

[7] = compound: COc1nc(C)cnc1NS(=O)(=O)c1cccnc1-c1ccc(-c2nnco2)cc1 [Zibotentan]; conditions: top dose 20 µM; top dose inferred
Method: as §1

[8] = compound: Cc1ccc(F)c(NC(=O)Nc2ccc(-c3cccc4[nH]nc(N)c34)cc2)c1 [ABT-869]; conditions: top dose 1.024 µM; top dose inferred
Method: as §1

[9] = compound: Cc1cnc(-c2cnc(NCCNc3ccc(C#N)cn3)nc2-c2ccc(Cl)cc2Cl)[nH]1 [CHIR-99021]
Method: as §1

[10] = compound: O=c1cc(-c2cccc3c2Sc2ccccc2S3)oc(N2CCOCC2)c1 [KU-55933]; conditions: top dose 10 µM
Method: as §1

[11] = top dose 2.56 µM, screen: GDSC drug entry 154
[12] = top dose 10 µM, screen: GDSC drug entry 1241, top dose inferred

Cell Line | AUC [1] | IC50 [1] [nM] | AUC [2] | IC50 [2] [nM] | AUC [3] | IC50 [3] [µM] | AUC [4] | IC50 [4] [µM] | AUC [5] | IC50 [5] [nM] | AUC [6] | IC50 [6] [µM] | AUC [7] | IC50 [7] [µM] | AUC [8] | IC50 [8] [nM] | AUC [9, 11] | IC50 [9, 11] [µM] | AUC [9, 12] | IC50 [9, 12] [µM] | AUC [10] | IC50 [10] [µM]
786-0 (kidney, adherent) | 0.053 | < 2 | 0.518 | 713 | 0.874 | 4.19 | 0.88 | 17.9 | 0.699 | 2160 | 0.825 | 8.58 | 0.974 | > 20 | 0.972 | > 1020 | 0.985 | > 2.56 | 0.9 | > 10 | 0.964 | > 10
A172 (glioma, adherent) | 0.066 | < 2 | 0.62 | 1350 | 0.9 | > 5 | 0.953 | > 20 | 0.587 | 1070 | 0.979 | > 16 | 0.989 | > 20 | 0.986 | > 1020 | 0.913 | > 2.56 | 0.914 | > 10 | 0.987 | > 10
A549 (lung adenocarcinoma, adherent) | – | – | – | – | 0.705 | 1.28 | – | – | 0.534 | 783 | – | – | – | – | – | – | – | – | 0.98 | > 10 | 0.823 | 6.9
A673 (rhabdomyosarcoma, adherent) | 0.212 | 5.12 | 0.961 | > 10200 | 0.954 | > 5 | 0.933 | > 20 | 0.684 | 1920 | 0.865 | 11.8 | 0.988 | > 20 | 0.99 | > 1020 | 0.989 | > 2.56 | 0.947 | > 10 | 0.976 | > 10
BCPAP (thyroid, adherent) | 0.134 | 2.64 | 0.581 | 1040 | 0.87 | 3.93 | 0.779 | 7.38 | 0.335 | 229 | 0.896 | > 16 | 0.989 | > 20 | 0.985 | > 1020 | 0.869 | 1.99 | 0.766 | 3.36 | 0.986 | > 10
BHY (head and neck, adherent) | 0.171 | 3.2 | 0.714 | 2590 | 0.977 | > 5 | 0.882 | > 20 | 0.716 | 2560 | 0.808 | 8.29 | 0.987 | > 20 | 0.979 | > 1020 | 0.986 | > 2.56 | 0.98 | > 10 | 0.96 | > 10
BPH-1 (prostate, adherent) | 0.323 | 9.65 | – | – | 0.919 | > 5 | 0.772 | 8.57 | 0.573 | 1010 | 0.803 | 8.91 | 0.977 | > 20 | 0.976 | > 1020 | 0.94 | > 2.56 | 0.933 | > 10 | 0.947 | > 10
CAL-54 (kidney, adherent) | 0.941 | > 512 | 0.929 | > 10200 | 0.927 | > 5 | 0.957 | > 20 | 0.585 | 1110 | 0.81 | 9.93 | 0.982 | > 20 | 0.977 | > 1020 | 0.977 | > 2.56 | 0.746 | 3.58 | 0.896 | > 10
CHP-134 (neuroblastoma, suspension) | – | – | 0.674 | 2250 | – | – | 0.854 | > 20 | – | – | 0.776 | 8.2 | 0.977 | > 20 | 0.98 | > 1020 | – | – | – | – | 0.901 | > 10
ChaGo-K-1 (non-small cell lung carcinoma, adherent) | 0.326 | 9.66 | 0.813 | 6690 | 0.894 | > 5 | 0.937 | > 20 | 0.681 | 2190 | 0.862 | > 16 | 0.981 | > 20 | 0.983 | > 1020 | 0.985 | > 2.56 | 0.943 | > 10 | 0.982 | > 10
EBC-1 (lung squamous cell carcinoma, adherent) | 0.449 | 22.7 | 0.779 | 4740 | 0.845 | 4.31 | 0.978 | > 20 | 0.693 | 2350 | 0.851 | 14.7 | 0.983 | > 20 | 0.983 | > 1020 | – | – | – | – | 0.942 | > 10
GAMG (glioma, adherent) | 0.265 | 6.56 | 0.531 | 780 | 0.858 | 4.43 | 0.929 | > 20 | 0.601 | 1200 | 0.745 | 5.25 | 0.978 | > 20 | 0.977 | > 1020 | 0.981 | > 2.56 | 0.973 | > 10 | 0.882 | > 10
H2591 (mesothelioma, adherent) | 0.382 | 13.7 | 0.788 | 6010 | 0.912 | > 5 | 0.973 | > 20 | 0.824 | 8530 | 0.868 | > 16 | 0.981 | > 20 | 0.979 | > 1020 | 0.981 | > 2.56 | 0.91 | > 10 | 0.94 | > 10

A lower IC50 marks a more sensitive line; where the fit passes the top or lowest dose, that dose stands as a limit. The AUC spans the tested range (256-fold, ending at the top dose) of the same fit: 1 means no effect, lower means more sensitive. For some of these results: An inferred top dose was calculated from the reported fits. For some of these results: An entry number marks a drug with two screens in the source, which often give different values.
